# Test results published in the antibiotic and cytotoxicity screens of Wong et al. (2023).
# The list shows a part of the results.
# Tests used:
# HSkMC = human skeletal muscle cells; assay: cytotoxicity call (relative viability < 0.9); settings: 10 µM
# HepG2 = assay: cytotoxicity call (relative viability < 0.9); settings: 10 µM
# S. aureus RN4220 = assay: growth inhibition call (relative growth <= 0.2); settings: 50 µM
Structure (SMILES),cytotoxicity call (HSkMC),cytotoxicity call (HepG2),growth inhibition call (S. aureus RN4220)
C[C@@H]1CN([C@H](C)CO)C(=O)c2cccc(NC(=O)Nc3ccccc3)c2O[C@@H]1CN(C)Cc1ccc(-c2ccccc2)cc1,inactive,inactive,inactive
CCCN(C)C[C@@H]1Oc2cc(C#Cc3ccccc3OC)ccc2S(=O)(=O)N([C@H](C)CO)C[C@@H]1C,inactive,inactive,inactive
C[C@H](CO)N1C[C@H](C)[C@H](CN(C)C(=O)c2ccncc2)Oc2cc(C#Cc3ccncc3)ccc2S1(=O)=O,inactive,active,inactive
Cc1ccc(-c2ccc3c(c2)O[C@@H](CN(C)C(=O)NC(C)C)[C@H](C)CN([C@H](C)CO)S3(=O)=O)cc1,inactive,inactive,inactive
O=S1(=O)NCNc2ccccc21,inactive,inactive,inactive
COc1ccc(NC(=O)N(C)C[C@@H]2Oc3ccc(NC(=O)CCN4CCOCC4)cc3CC(=O)N([C@@H](C)CO)C[C@H]2C)cc1,inactive,inactive,inactive
C[C@H](CO)N1C[C@H](C)[C@H](CN(C)S(=O)(=O)c2cn(C)cn2)Oc2c(NC(=O)CCCCCC(=O)Nc3ccccc3N)cccc2C1=O,inactive,inactive,inactive
Cc1noc(C)c1NC(=O)N(C)C[C@@H]1Oc2ccc(NC(=O)c3ccncc3)cc2CC(=O)N([C@@H](C)CO)C[C@H]1C,inactive,inactive,inactive
CCOC(=O)/C(C#N)=C1/C=CN(C)C=N1,inactive,active,inactive
COc1ccc(CN(C)C[C@H]2Oc3c(NC(=O)Nc4cccc5ccccc45)cccc3C(=O)N([C@H](C)CO)C[C@H]2C)cc1,inactive,inactive,inactive
C[C@@H]1CCCCO[C@@H](CN(C)C(=O)Nc2cccc3ccccc23)[C@H](C)CN([C@H](C)CO)C(=O)c2cc(NC(=O)Nc3ccc4c(c3)OCO4)ccc2O1,inactive,inactive,inactive
CC1=C(/C=C/C(C)=C/C=C/C(C)=C/C=C/C=C(C)/C=C/C=C(C)/C=C/C2=C(C)C(=O)C(O)CC2(C)C)C(C)(C)CC(O)C1=O (centres undefined),inactive,inactive,inactive
COc1ccc(NC(=O)N[C@H]2CC[C@@H](CCNC(=O)CN3CCOCC3)O[C@H]2CO)cc1,inactive,inactive,inactive
CC(=O)N(C)C[C@@H]1Oc2ncc(C#CC(C)(C)O)cc2C(=O)N([C@@H](C)CO)C[C@@H]1C,active,inactive,inactive
COc1cc(Cc2cnc(N)nc2N)cc(OC)c1OC,inactive,inactive,active
CN(C)CCCNC(=O)C[C@H]1CC[C@@H]2[C@@H](COc3ccc(NS(C)(=O)=O)cc3C(=O)N2C)O1,inactive,inactive,inactive
C[C@H]1CN([C@@H](C)CO)C(=O)Cc2cc(NC(=O)Cc3ccccc3)ccc2O[C@H]1CN(C)S(C)(=O)=O,inactive,inactive,inactive
O=C(O)C(O)C(O)C(=O)O.OCc1cccnc1 (centres undefined),inactive,inactive,inactive
CCCCCC/C=C\CCCCCCCC(=O)O,inactive,inactive,inactive
C[C@@H]1CN([C@@H](C)CO)C(=O)Cc2cc(NC(=O)NC3CCCCC3)ccc2O[C@@H]1CN(C)Cc1ccc(Oc2ccccc2)cc1,inactive,active,inactive
CC(C)NC(=O)N(C)C[C@H]1Oc2c(NS(=O)(=O)c3ccc(F)cc3)cccc2C(=O)N([C@@H](C)CO)C[C@@H]1C,inactive,inactive,inactive
CC(C)(C)OC(=O)C[C@@H]1CC=CC[C@H](CC(=O)N[C@@H](CO)Cc2ccccc2)C(=O)N2CCC[C@H]2COC1=O,inactive,inactive,inactive
C[C@@H]1CN([C@@H](C)CO)C(=O)c2cc(NC(=O)Cc3ccccc3)ccc2O[C@@H](C)CCCCO[C@@H]1CN(C)Cc1ccc(C(F)(F)F)cc1,inactive,inactive,inactive
COc1ccc(CN(C)C[C@@H]2OCCCC[C@@H](C)Oc3ccc(NC(=O)Cc4ccccc4)cc3C(=O)N([C@@H](C)CO)C[C@H]2C)cc1,inactive,inactive,inactive
C=C1C[C@@H]2CC[C@@]34C[C@H]5O[C@H]6[C@@H](O3)[C@H]3O[C@H](CC[C@@H]3O[C@H]6[C@H]5O4)CC(=O)C[C@@H]3[C@@H](OC)[C@@H](C[C@H](O)CN)O[C@H]3C[C@H]3O[C@@H](CC[C@@H]1O2)C[C@@H](C)C3=C,active,inactive,inactive
C[C@@H]1CN([C@@H](C)CO)C(=O)c2cccc(NC(=O)Nc3ccc4c(c3)OCO4)c2O[C@H]1CN(C)C(=O)Nc1ccc(C(F)(F)F)cc1,inactive,inactive,inactive
c1ccc(-c2cccs2)nc1,inactive,inactive,inactive
C[C@H](CO)N1C[C@H](C)[C@@H](CN(C)Cc2ccncc2)OCCCC[C@H](C)Oc2ccc(NC(=O)Nc3ccc(F)cc3)cc2C1=O,inactive,inactive,inactive
